Assay results taken from patent US20150191545A1 (MERRIMACK PHARMACEUTICALS, published 2015).

Experiments:
[1] = target: T1, recombinant extracellular domain of EGFR (UniProt P00533 in part, limits assumed); experiment: competition ELISA, ErbB3-coated plate, B2B3-1 at a half-maximal binding concentration, soluble competitor titrated
T1 construct: extracellular domain

[2] = target: T2, recombinant extracellular domain of ErbB4 (UniProt Q15303 26-651, limits assumed); experiment: as above
T2 construct: extracellular domain
T2 sequence (looked up): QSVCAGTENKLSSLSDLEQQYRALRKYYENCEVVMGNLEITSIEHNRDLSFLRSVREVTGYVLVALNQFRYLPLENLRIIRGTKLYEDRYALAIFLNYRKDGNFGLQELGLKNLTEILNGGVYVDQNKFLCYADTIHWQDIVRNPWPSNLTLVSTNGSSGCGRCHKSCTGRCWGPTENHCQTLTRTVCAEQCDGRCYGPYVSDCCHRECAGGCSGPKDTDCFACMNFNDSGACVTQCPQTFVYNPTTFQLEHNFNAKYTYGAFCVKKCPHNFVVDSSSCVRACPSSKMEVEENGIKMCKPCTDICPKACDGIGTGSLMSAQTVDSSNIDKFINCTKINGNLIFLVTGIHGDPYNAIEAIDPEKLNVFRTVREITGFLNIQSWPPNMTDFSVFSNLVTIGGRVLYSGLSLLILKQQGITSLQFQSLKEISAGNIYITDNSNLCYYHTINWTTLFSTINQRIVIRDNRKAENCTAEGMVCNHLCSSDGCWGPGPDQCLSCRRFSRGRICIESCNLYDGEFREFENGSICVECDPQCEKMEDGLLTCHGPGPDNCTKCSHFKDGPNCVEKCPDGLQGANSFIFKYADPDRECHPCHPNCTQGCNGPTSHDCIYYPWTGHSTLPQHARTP

binding result [1]: no binding (tested: about 4000 ng/ml)
binding result [2]: no binding (tested: about 4000 ng/ml)
B1: B2B3-1 (bispecific antibody)
chain: QVQLQESGGGLVKPGGSLRLSCAASGFTFSSYWMSWVRQAPGKGLEWVANINRDGSASYYVDSVKGRFTISRDDAKNSLYLQMNSLRAEDTAVYYCARDRGVGYFDLWGRGTLVTVSSASTGGGGSGGGGSGGGGSQSALTQPASVSGSPGQSITISCTGTSSDVGGYNFVSWYQQHPGKAPKLMIYDVSDRPSGVSDRFSGSKSGNTASLIISGLQADDEADYYCSSYGSSSTHVIFGGGTKVTVLGAAS[about 600 residues omitted here]AAALQVQLVQSGAEVKKPGESLKISCKGSGYSFTSYWIAWVRQMPGKGLEYMGLIYPGDSDTKYSPSFQGQVTISVDKSVSTAYLQWSSLKPSDSAVYFCARHDVGYCTDRTCAKWPEWLGVWGQGTLVTVSSGGGGSSGGGSGGGGSQSVLTQPPSVSAAPGQKVTISCSGSSSNIGNNYVSWYQQLPGTAPKLLIYDHTNRPAGVPDRFSGSKSGTSASLAISGFRSEDEADYYCASWDYTLSGWVFGGGTKLTVLG
notes: Single-chain bispecific scFv-HSA-scFv fusion expressed in CHO-K1 cells; also called H3-mHSA-B1D2; H3-HSA-B1D2
